# According to PubChem BioAssay AID2685 (National Center for Advancing Translational Sciences (NCATS), 2010):
# About 2,100 (0.66%) of roughly 320,000 compounds were called active. Another 53% or so got no clear call; they are omitted. Calls come from the whole dose curve; as a rule, active = well fitted inhibition curve with a large enough effect in the signal ratio, with a control signal flat (not every such curve was filed as active); inconclusive = small, poorly fitted or top-dose-only effect, or effect the other way, or a change in a side signal; inactive = flat fitted curve, though single readings scatter; the % refers to the signal ratio. More than one record can exist for a structure, and the calls need not agree. Not every entry of the source has a single result; some have several. This is not the full list of results. There may be further records. Results that share an entry are repeated measurements across runs, samples, wells, individuals or studies. Records carry a tag for their origin. The letters are not those of the source and start again with each entry.
# Experiment: qHTS Assay for Lipid Storage Modulators in Drosophila S3 Cells
# Conditions: BODIPY lipid droplet fluorescence, 18-24 h, cells fed with added oleic acid; series mostly up to 46.1 µM
# Potency is the fitted concentration of half-maximal effect.
row,Compound,Potency
1,CN(Cc1ccco1)c1ncnc2ccc(-c3ccoc3)cc12,active: 14.6 µM [sample A] and inactive [sample B]
2,CC(=O)NC(c1cccs1)c1cc(F)c2cccnc2c1O (centres undefined),active: 1.3 µM [sample A] and inactive [sample B]
3,CC(C(=O)O)c1cccc(C(=O)c2ccccc2)c1 (centres undefined),inactive [sample A] and active: 5.8 µM [sample B]
4,C[C@H](NC(=O)C1(c2ccccc2)CCN(C(=O)[C@H]2CSCN2C(=O)OC(C)(C)C)CC1)C(=O)O,active: 7.31 µM [sample A] and inactive [sample B]
